About 2,200 (0.71%) of roughly 310,000 compounds showed an effect of 50% or more. The effect is printed as a negative number. Some of the results follow. Where a SMILES comes first, the peptide text is derived from it. The star is where a group is joined. Boc = CC(C)(C)OC(=O)*; Bn = c1ccc(C*)cc1; NHNH2 = NN*
The molecules below were run against human ether-à-go-go-related gene (hERG) potassium channel (human, UniProt Q12809) (assay: primary screen, population patch clamp on CHO cells stably expressing hERG).
Chain of human ether-à-go-go-related gene (hERG) potassium channel (Q12809 whole entry, looked up): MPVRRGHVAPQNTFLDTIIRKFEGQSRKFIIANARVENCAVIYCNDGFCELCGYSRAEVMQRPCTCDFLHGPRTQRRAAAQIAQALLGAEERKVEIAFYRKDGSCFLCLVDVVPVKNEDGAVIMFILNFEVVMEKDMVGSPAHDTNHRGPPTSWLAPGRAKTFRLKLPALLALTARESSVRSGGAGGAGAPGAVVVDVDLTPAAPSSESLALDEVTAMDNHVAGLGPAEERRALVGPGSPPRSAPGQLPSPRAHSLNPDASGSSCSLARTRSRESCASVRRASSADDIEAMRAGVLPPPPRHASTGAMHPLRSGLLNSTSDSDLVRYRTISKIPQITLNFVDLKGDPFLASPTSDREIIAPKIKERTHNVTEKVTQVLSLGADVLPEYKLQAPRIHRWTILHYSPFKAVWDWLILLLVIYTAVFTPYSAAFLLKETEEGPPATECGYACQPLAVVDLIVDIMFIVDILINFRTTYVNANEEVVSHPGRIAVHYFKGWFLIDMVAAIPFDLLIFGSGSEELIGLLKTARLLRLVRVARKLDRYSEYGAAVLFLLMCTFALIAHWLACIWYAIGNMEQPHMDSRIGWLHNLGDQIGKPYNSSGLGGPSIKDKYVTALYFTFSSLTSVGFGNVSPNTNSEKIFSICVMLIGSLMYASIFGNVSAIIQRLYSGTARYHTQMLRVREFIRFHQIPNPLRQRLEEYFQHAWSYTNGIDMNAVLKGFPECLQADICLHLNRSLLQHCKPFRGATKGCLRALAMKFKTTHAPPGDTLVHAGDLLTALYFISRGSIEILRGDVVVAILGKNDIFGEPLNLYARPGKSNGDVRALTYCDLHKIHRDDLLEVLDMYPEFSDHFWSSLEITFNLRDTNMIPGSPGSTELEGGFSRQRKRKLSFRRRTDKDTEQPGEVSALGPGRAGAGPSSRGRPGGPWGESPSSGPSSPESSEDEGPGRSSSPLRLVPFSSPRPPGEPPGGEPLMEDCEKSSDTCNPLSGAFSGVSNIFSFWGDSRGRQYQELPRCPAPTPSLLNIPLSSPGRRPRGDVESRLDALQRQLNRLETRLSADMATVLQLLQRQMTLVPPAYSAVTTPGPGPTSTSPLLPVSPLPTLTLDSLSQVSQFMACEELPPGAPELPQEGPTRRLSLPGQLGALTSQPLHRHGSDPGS

SMILES	hERG current change (%, negative = inhibition) at 1uM [%]
N#Cc1cc2cc3c(cc2nc1SCC(=O)N1CCCC1)OCCO3	11.5
COc1ccccc1NC(=S)N(CCc1ccc(OC)c(OC)c1)Cc1ccccn1	-9.66
CCC(=O)N1CCN(c2ccc(NC(=S)NC(=O)C(C)C)cc2)CC1	7.03
O=C(CSc1nnc2sc3ccccc3n12)NCc1ccc2c(c1)OCO2	4.29
CCC(C)(C)n1nnnc1C(c1cc2cc(OC)c(OC)cc2[nH]c1=O)N1CCc2ccccc21 (stereo not shown)	1.46
Cc1ccc(N2C(=O)c3ccccc3C2Nc2cccnc2)nc1 (stereo not shown)	3.94
CCCCC1CN2CCc3c([nH]c4ccccc34)C2(C)C1.Cl (stereo not shown)	0.159
O=C(CSc1nc2ccc([N+](=O)[O-])cc2[nH]1)c1ccc2ccccc2c1	5.08
C=CCn1c(O)c(C(CC)=NCCc2ccccc2)c(=O)[nH]c1=O	-19.6
CC(C)CC(NC(=O)C(COCc1ccccc1)NC(=O)OC(C)(C)C)C(=O)NN (stereo not shown) (Boc-Ser(Bn)-Leu-NHNH2; configuration not given here)	18.6
N#CCC(=O)Nc1ccc(C(=O)NCc2cccc(Cl)c2)cc1	9.55
CC(OC(=O)c1ccc(Cl)c(S(=O)(=O)N2CCOCC2)c1)C(=O)Nc1ccc(S(N)(=O)=O)cc1 (stereo not shown)	15.1
COc1cccc(NC(=O)CCC(=O)Nc2ccc3nc(N4CCOCC4)cc(C)c3c2)c1	19.1
O=C(O)/C=C/c1cn(Cc2ccccc2Cl)nc1-c1ccccc1	12.5
NNc1nc2c(-c3ccc(F)cc3)nnn2c2ccccc12	11.5
CC1(C)CCCC(C)(C)N1CC(O)COCCOc1ccc(Br)cc1.Cl (stereo not shown)	-12.2
CCNC(=S)N/N=C/c1cc(Br)cc(Br)c1OC	6.52
Cn1c(SCc2nnc(-c3ccccc3)o2)nc2ccccc21	14.8
Cc1cccc(N2CCN(Cc3ccc([N+](=O)[O-])o3)CC2)c1C	11.3
CC(=O)Nc1ccc(-c2cc(-c3ccc(NC(C)=O)cc3)nc(-c3ccc(NC(C)=O)cc3)n2)cc1	11.9
O=C(NCc1ccco1)c1noc2c1CCCC2	5.58
COc1ccc(NC(=O)COC(=O)c2ccc([N+](=O)[O-])o2)cc1Cl	13.9

SMILES	hERG current change (%, negative = inhibition) at 1uM [%]
Cc1ccc(C)c(N2CCN(C(=S)Nc3ccc4nc(N5CCOCC5)cc(C)c4c3)CC2)c1	-5.44
Cc1cc(N(C)C)ccc1N=Nc1ccc2ncccc2c1	12.5
O=C(O)C(Oc1ccc2cc(-c3ccc(Cl)cc3)c(=O)oc2c1)c1ccccc1 (stereo not shown)	14
Cn1ncc(Cl)c1C(=O)Nc1nc2ccc(Cl)cc2s1	4.66
COc1cc(C(=O)OCC(=O)c2cc(C)n(CC3CCCO3)c2C)cc(OC)c1C (stereo not shown)	-1.68
O=c1nc(-c2ccccc2)cc(-c2ccccc2)[nH]1	4.15
COC(=O)C1=C(c2ccc(OC(F)(F)F)cc2)C[C@@H]2CC[C@H]1N2C(=O)NCCCOC(C)C	2.87
CCCCN(C)CCC(=O)Nc1ccc2c(c1)CCC2.Cl	10.2
CCCc1c(O)nc(SCC(=O)NCc2ccco2)[nH]c1=O	14.5
COCCNC(=S)N1C2CCC1CC(NC(=O)NC13CC4CC(CC(C4)C1)C3)C2 (stereo not shown)	4.19
O=C(NNC(=O)c1sccc1-n1cccc1)Nc1ccc(F)cc1	5.42
CC(=O)c1ccc(S(=O)(=O)N(CCCO)Cc2cc3cc4c(cc3[nH]c2=O)OCCO4)cc1	15.8
COCCCn1c(=NC(=O)c2ccccc2)c(C#N)cc2c(=O)n3cccc(C)c3nc21	-49
COC(=O)Nc1ncc(CN2CCC(c3ccccc3)CC2)s1	-9.17
COc1ccc2ccccc2c1C1CC(=O)N2CN(C3CCCCC3)CSC2=C1C#N (stereo not shown)	18.5
O=C1CN(c2ccccc2)C(=S)N1c1ccccc1.[Na+]	10.1
CC(Sc1nnc(-c2ccc(C(C)(C)C)cc2)n1C)C(N)=O (stereo not shown)	14.8
CCNC(=S)NNC(=O)Cn1nc(C)cc1C	0.389
c1ccc(-c2cnnc(N3CCCCC3)n2)cc1	-5.79
Cc1ccccc1NS(=O)(=O)c1ccc(C(=O)NCCCN2CCCC2=O)cc1	8.15
NNC(=O)c1cc(C2CC2)nc2ccc(Br)cc12	10.5
